Consider 57 molecules from publication PMC4336329 (PLoS ONE, 2015).

Among all 310,000 compounds or so, about 14,000 (4.5%) showed an effect of 50% or more. Effects have a minus sign here. Some of the results follow.
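Further: peak tail current of the secondary pulse compared with the same well before compound.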

The target of the test is human ether-à-go-go-related gene (hERG) potassium channel (human, UniProt Q12809). Briefly: primary screen, population patch clamp on CHO cells stably expressing hERG.
Sequence of human ether-à-go-go-related gene (hERG) potassium channel (Q12809 whole entry, looked up): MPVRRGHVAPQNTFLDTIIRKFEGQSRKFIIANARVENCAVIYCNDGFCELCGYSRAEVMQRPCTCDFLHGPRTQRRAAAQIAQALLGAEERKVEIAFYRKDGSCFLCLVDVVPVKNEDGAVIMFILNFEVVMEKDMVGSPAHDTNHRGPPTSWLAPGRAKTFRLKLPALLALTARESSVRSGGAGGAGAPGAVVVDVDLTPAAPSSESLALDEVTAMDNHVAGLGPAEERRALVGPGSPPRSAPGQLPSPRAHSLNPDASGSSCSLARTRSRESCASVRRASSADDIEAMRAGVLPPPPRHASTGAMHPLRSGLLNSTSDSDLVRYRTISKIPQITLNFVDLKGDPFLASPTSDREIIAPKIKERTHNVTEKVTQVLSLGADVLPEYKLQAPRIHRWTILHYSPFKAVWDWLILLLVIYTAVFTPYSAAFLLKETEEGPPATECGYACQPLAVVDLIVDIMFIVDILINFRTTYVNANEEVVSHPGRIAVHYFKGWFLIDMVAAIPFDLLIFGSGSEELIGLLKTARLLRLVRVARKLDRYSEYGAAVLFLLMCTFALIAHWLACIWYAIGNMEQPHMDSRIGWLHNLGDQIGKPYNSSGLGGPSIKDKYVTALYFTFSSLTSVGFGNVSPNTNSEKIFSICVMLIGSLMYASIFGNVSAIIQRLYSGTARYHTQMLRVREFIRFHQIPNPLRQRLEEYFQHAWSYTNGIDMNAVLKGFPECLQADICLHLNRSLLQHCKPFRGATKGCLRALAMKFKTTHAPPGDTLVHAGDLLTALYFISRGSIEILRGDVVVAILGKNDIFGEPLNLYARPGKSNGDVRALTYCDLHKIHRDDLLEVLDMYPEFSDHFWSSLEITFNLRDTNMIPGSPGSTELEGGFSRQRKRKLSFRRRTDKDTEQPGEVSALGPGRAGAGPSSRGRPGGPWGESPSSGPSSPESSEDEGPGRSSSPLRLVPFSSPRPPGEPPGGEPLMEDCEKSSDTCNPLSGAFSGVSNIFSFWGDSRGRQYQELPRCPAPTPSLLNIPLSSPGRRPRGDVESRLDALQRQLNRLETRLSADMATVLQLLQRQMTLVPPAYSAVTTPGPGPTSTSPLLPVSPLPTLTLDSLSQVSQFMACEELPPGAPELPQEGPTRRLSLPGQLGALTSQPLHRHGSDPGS
Consider `O=S(=O)(Nc1cccnc1Cl)c1ccc(-c2ccccc2)cc1`, for which the “hERG current change (%, negative = inhibition) at 10uM” value is 16.3%.

For `CC(C)Cc1nnc(NC(=O)CCC(=O)NC2CC2)s1`, the “hERG current change (%, negative = inhibition) at 10uM” value amounted to 21.9%.

Turning to `C=CCN=C(NC#N)SCC(=O)NC(C)(C)C`, the “hERG current change (%, negative = inhibition) at 10uM” value stood at 16.7%.

In the case of `Cc1cccnc1NC(=O)c1ccc(NS(=O)(=O)c2ccc3[nH]c(=O)[nH]c3c2)cc1`, the “hERG current change (%, negative = inhibition) at 10uM” value is reported as -5.89%.

For `Cc1nnc2sc(SCc3cccc(Cl)c3)nn2c1=O`, the “hERG current change (%, negative = inhibition) at 10uM” value is listed as -12.5%.

For `O=C(NCCc1c[nH]c2ccccc12)C1CCC(=O)N(CCc2cccc(F)c2)C1` (stereo not drawn), the “hERG current change (%, negative = inhibition) at 10uM” value is listed as -15.2%.

As for `C1CNCCN1.C[C@]12CC[C@@H]3c4ccc(OS(=O)(=O)O)cc4CC[C@H]3[C@@H]1CCC2=O`, the “hERG current change (%, negative = inhibition) at 10uM” value is 18.3%.

For `Cc1ccc(C(=O)Oc2cccc(NC(=O)c3ccccc3)c2)cc1C`, the “hERG current change (%, negative = inhibition) at 10uM” value is 19.2%.

Regarding `O=C(COC(=O)c1cc(F)cc(F)c1)Nc1cccnc1Cl`, the “hERG current change (%, negative = inhibition) at 10uM” value turned out to be 4.12%.

Take `CCn1cc([N+](=O)[O-])c(C(=O)Nc2ccn(Cc3ccccc3F)n2)n1`: the “hERG current change (%, negative = inhibition) at 10uM” value is given as 0.594%.

Take `COc1ccc(CC(=O)Nc2nc(-c3cccc([N+](=O)[O-])c3)cs2)cc1`: the “hERG current change (%, negative = inhibition) at 10uM” value is 0.13%.

`O=C(NO)C1CC2C=CC1C2` (stereo not drawn): the “hERG current change (%, negative = inhibition) at 10uM” value came to 7.64%.

For the molecule `O=C(Nc1cnc2ccccn2c1=O)c1ccc(F)cc1`, the “hERG current change (%, negative = inhibition) at 10uM” value amounted to 5.59%.

`Cc1ccc2c(c1)nnn2C1CCN(S(C)(=O)=O)CC1`: the “hERG current change (%, negative = inhibition) at 10uM” value was -37.1%.

Take `O=c1[nH]c2c(s1)C(c1cccnc1)C1C3CCC(C3)C1S2` (stereo not drawn): the “hERG current change (%, negative = inhibition) at 10uM” value is given as -25.9%.

`N#Cc1c2n(c3c(-c4ccccc4)ncnc13)CCC2`: the “hERG current change (%, negative = inhibition) at 10uM” value worked out at 7.57%.

For `CC(=O)Nc1ccc(S(=O)(=O)N2CCN(S(=O)(=O)N3CCCCC3)CC2)cc1`, the “hERG current change (%, negative = inhibition) at 10uM” value is given as -1.31%.

For the molecule `Cc1cccc(N=Cc2c(O)cc(C)oc2=O)c1`, the “hERG current change (%, negative = inhibition) at 10uM” value turned out to be 5.22%.

As to `CCN1CCN(C(=O)c2cc3cc(Cl)ccc3[nH]2)CC1`, the “hERG current change (%, negative = inhibition) at 10uM” value was -59.8%.

Consider `COc1ccc(S(=O)(=O)N(C)CC(=O)NC2CC2)cc1OC`, for which the “hERG current change (%, negative = inhibition) at 10uM” value was 7.62%.

Turning to `Cc1ccc(OCC(=O)Nc2cccc(O)c2)cc1C`, the “hERG current change (%, negative = inhibition) at 10uM” value is -1.17%.

With `O=C(N/N=C/c1c(O)n(Cc2ccco2)c(=O)[nH]c1=O)c1ccccc1O`, the “hERG current change (%, negative = inhibition) at 10uM” value was determined as 3.1%.

Consider `Cc1ccc(C)c(NC(=S)NC2CC3CCCC(C2)N3CC(C)C)c1` (stereo not drawn), for which the “hERG current change (%, negative = inhibition) at 10uM” value was -28.7%.

For the molecule `CCCCC(=O)Nc1ccc(C(=O)N2CCN(C)CC2)cc1`, the “hERG current change (%, negative = inhibition) at 10uM” value amounted to 6.41%.

For `COc1ccc(-c2nnn(CC#N)n2)cc1OC`, the “hERG current change (%, negative = inhibition) at 10uM” value stood at 14.6%.

For the molecule `CC(C)(C)c1nnc(NC(=O)Cc2ccc(Br)cc2)s1`, the “hERG current change (%, negative = inhibition) at 10uM” value amounted to 10.9%.

In the case of `O=C(O)CCn1nnc2ccccc21`, the “hERG current change (%, negative = inhibition) at 10uM” value is listed as 13.3%.

`Cc1ccc2cc(C3CC(c4cccs4)=NN3S(C)(=O)=O)c(Cl)nc2c1` (stereo not drawn): the “hERG current change (%, negative = inhibition) at 10uM” value is -9.76%.

For `COc1cccc(OCCNC(=O)c2ccccc2Sc2ccccc2C#N)c1`, the “hERG current change (%, negative = inhibition) at 10uM” value was 0.896%.

With `CSc1ccccc1NC(=O)c1cnc2n(c1=O)CCS2`, the “hERG current change (%, negative = inhibition) at 10uM” value is on record as -1.14%.

In the case of `CC1CC1C(=O)Nc1nc(-c2ccccn2)cs1` (stereo not drawn), the “hERG current change (%, negative = inhibition) at 10uM” value was 10.6%.

As to `O=C(CSc1nc(=O)n2ccccc2n1)N1N=C(c2cccs2)CC1c1ccc(F)cc1` (stereo not drawn), the “hERG current change (%, negative = inhibition) at 10uM” value is -52.2%.

As to `O=C(NCc1ccc(-c2nc3ccccc3s2)cc1)c1ccc(Br)o1`, the “hERG current change (%, negative = inhibition) at 10uM” value is 9.77%.

Take `Cc1ccc(N=C(N(C)C)P(=O)(N(C)C)N(C)C)c(C)c1`: the “hERG current change (%, negative = inhibition) at 10uM” value came out at 5.12%.

In the case of `CC(=O)C[C@H](O)CC(=O)[C@H]1OC(=O)CCCCCCCc2ccccc21`, the “hERG current change (%, negative = inhibition) at 10uM” value is given as 1.67%.

Turning to `CC(=O)N1CCCN(Cc2cn(-c3cccc(C)c3)nc2-c2cccc(F)c2)CC1`, the “hERG current change (%, negative = inhibition) at 10uM” value is reported as -16.9%.

`COc1cccc(NC(=O)CCC(=O)N2CC(C)Oc3ccc(C)cc32)c1` (stereo not drawn): the “hERG current change (%, negative = inhibition) at 10uM” value is listed as -17.1%.

With `CCOC(=O)c1ccc(Nc2nc(N3CCOCC3)nc(N3CCOCC3)n2)cc1.Cl`, the “hERG current change (%, negative = inhibition) at 10uM” value is reported as -1.62%.

For `COc1ccc(CCNS(=O)(=O)c2ccc(Br)cc2)cc1`, the “hERG current change (%, negative = inhibition) at 10uM” value is recorded as -11.5%.

As for `O=C(O)CCCn1cc(NC(=O)c2ccc(F)cc2)cn1`, the “hERG current change (%, negative = inhibition) at 10uM” value was 26.1%.

Regarding `CCOC(=O)c1ccc(-n2c(CN3CCN(CCO)CC3)nc3ccc([N+](=O)[O-])cc3c2=O)cc1`, the “hERG current change (%, negative = inhibition) at 10uM” value is listed as -25.1%.

For `CC(C)(C)OC(=O)NCCc1nnc(SCC(=O)Nc2ccc(Br)cc2)o1`, the “hERG current change (%, negative = inhibition) at 10uM” value is listed as -2.79%.

Regarding `Cn1cc(C=C2C(=O)NC(=O)NC2=O)c2ccccc21`, the “hERG current change (%, negative = inhibition) at 10uM” value is listed as 10.6%.

As for `COn1c(SCC(=O)N(C)C)nc2ccccc2c1=O`, the “hERG current change (%, negative = inhibition) at 10uM” value was determined as 8.12%.

Consider `CCc1c(C(=O)NNC(=S)Nc2ccc(S(=O)(=O)Nc3ncccn3)cc2)csc1C`, for which the “hERG current change (%, negative = inhibition) at 10uM” value is recorded as 22.7%.

As for `CCN(CC(=O)Nc1cccc(OC)c1)C(=O)C1CCN(C(=O)Nc2ccccc2)CC1`, the “hERG current change (%, negative = inhibition) at 10uM” value came to 16.7%.

For `COC(=O)c1cccc(NC(=O)C2COc3ccccc3O2)c1` (stereo not drawn), the “hERG current change (%, negative = inhibition) at 10uM” value was found to be 5.87%.

As to `CCOC(=O)N1CCN(C(=O)C(=O)NNC(=O)COc2ccc(Cl)c(C)c2)CC1`, the “hERG current change (%, negative = inhibition) at 10uM” value is recorded as -3.93%.

As to `CCc1nnc(NC(=O)c2ccc(S(=O)(=O)N(CC(C)C)CC(C)C)cc2)o1`, the “hERG current change (%, negative = inhibition) at 10uM” value is listed as -4.9%.

On to `O=C(NNc1cccc(Cl)n1)c1cccnc1Cl`, for which the “hERG current change (%, negative = inhibition) at 10uM” value is listed as 17.5%.

For `CCOP(=O)(OCC)C(NC(=O)Cc1ccccc1)C(Cl)(Cl)Cl` (stereo not drawn), the “hERG current change (%, negative = inhibition) at 10uM” value worked out at 11.5%.

For the molecule `COc1cccc(/C=C/C(=O)OCC(=O)c2ccc3c(c2)NC(=O)CO3)c1`, the “hERG current change (%, negative = inhibition) at 10uM” value worked out at 12.7%.

With `O=C(CN1CCC(n2nnc3cc(C(F)(F)F)ccc32)CC1)NNC(=O)c1ccco1`, the “hERG current change (%, negative = inhibition) at 10uM” value is recorded as -24.6%.

As for `CCOc1ccc(C(=O)OCC(=O)NCCNC(=O)COC(=O)c2ccc(OCC)cc2)cc1`, the “hERG current change (%, negative = inhibition) at 10uM” value is given as 13.8%.

For the molecule `Cc1ccc(N2C(=O)N(CC(=O)Nc3ccc([N+](=O)[O-])cc3)C(=O)C2C)cc1` (stereo not drawn), the “hERG current change (%, negative = inhibition) at 10uM” value came out at 11%.

For `COc1ccc(OC)c(NC(=O)c2sc3nc(Cc4ccccc4)cc(C(F)(F)F)c3c2N)c1`, the “hERG current change (%, negative = inhibition) at 10uM” value came out at 6.89%.

Regarding `Cc1ccc(OC(C)C(=O)Nc2cc(C)on2)cc1` (stereo not drawn), the “hERG current change (%, negative = inhibition) at 10uM” value turned out to be 2.53%.
